In all, about 45,000 compounds went through this assay and about 200 (0.44%) were called active. Not shown: some 7% with an inconclusive outcome. Calls follow the shape of the dose curve; as a rule, active = well fitted activation curve with a large enough effect; inconclusive = small, poorly fitted or top-dose-only effect; inactive = no such curve, though single readings can be large or run the other way. This is one part of the list.
Assay: qHTS of TDP-43 Inhibitors: NCGC Sytravon Library Screen; also: 0% is about no effect; nearly all actives have a fitted effect of over 55% in size
Settings: yeast TDP-43 toxicity rescue, BacTiter-Glo growth, 24 h; series mostly up to 46.1 µM; growth rescue (activation): at the top concentration
Procedure, shortened: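 TDP-43-expressing yeast, pregrown in raffinose, seeded at OD600 0.02 in galactose medium with compound for 24 hr at 30 deg C. Growth read by BacTiter-Glo luminescence, so rescue of toxicity appears as activation.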

SMILES	growth rescue (activation)
Fc1ccccc1CCNc1c2c(nc3ncnn13)CCCC2	inactive: 15.8%
CCOc1ccc(C(=O)OCC(=O)N2CCCC2)cc1OCC	inactive: 7.64%
Nc1ncnc(NC2CCS(=O)(=O)C2)c1[N+](=O)[O-] (stereo not given)	inactive: -0.0356%
O=C(C1CCN(S(=O)(=O)c2cccc3cccnc23)CC1)N1CCN(c2ccccn2)CC1	inactive: 18.2%
C=CCNC(=O)COC(=O)c1cc(S(=O)(=O)N2CCCCC2)ccc1Cl	inactive: 11.8%
CCS(=O)(=O)N1CCN(Cc2ccc([N+](=O)[O-])cc2)CC1	inactive: -4.06%
CC(=O)N(C)c1ccc(NC(=O)c2cnn(C)c2)cc1	inactive: -4.56%
Cc1ccc(C(=O)NC(=S)Nc2cccc(NC(=O)c3ccccc3)c2)cc1[N+](=O)[O-]	inactive: 15.3%
O=C(Nc1ccc(Cl)c(S(=O)(=O)N2CCOCC2)c1)c1ccc2c(c1)OCO2	inactive: 2.63%
Cc1c(C(=O)NN2CCOCC2)oc2ccccc12	inactive: 11.6%
CCCCOCC(O)CCc1n[nH]c(=S)n1-c1ccccc1 (stereo not given)	inactive: 10.2%
COc1ccc(-c2ccc(=O)n(CC(=O)Nc3ccc4c(c3)OCCO4)n2)cc1	inactive: -4.36%
CCC(C)n1nccc1NC(=O)C(C)Cl (stereo not given)	inactive: 7.08%
O=C(NCc1cc(Cl)cc(Cl)c1)c1ccc2sc([C@@H]3O[C@H](CO)[C@H](O)[C@H](O)[C@H]3O)nc2c1	inactive: 7.84%
CCCn1c2ccc(C)cc2c2nnc(SCCN3CCCCC3)nc21	inactive: 10.4%
CNC(=O)CNC(=O)Nc1ccc(Cl)c(Cl)c1	inactive: 8.62%
COc1ccc(-c2nnc(SCC(=O)NNC(=O)Cc3ccccc3)n2C)cc1OC	inactive: 13.6%
CCOC(=O)c1ccc(NC(=O)COc2ccccc2CNC2CCCC2)cc1	inactive: 15%
CC(Cc1ccsc1)NC(=O)CCc1nnc(COc2ccccc2)o1 (stereo not given)	inactive: 17.4%
CN(C(=O)CN1CCC(NC(=O)c2ccccc2Br)CC1)C1CCCCC1	inactive: 8.48%
CSc1ncccc1C(=O)OCC(=O)NC(C)C	inactive: 4.66%
COc1cc(OC)c(OC)cc1/C=N/NC(=O)c1cccc(S(=O)(=O)N2CCOCC2)c1	inactive: 13.6%
CCOc1ccc(NC(=O)C[n+]2ccc(N(C)C)cc2)cc1	inactive: 11.1%
COc1ccc(N(C(=O)c2cccnc2)S(=O)(=O)c2cccc([N+](=O)[O-])c2)cc1	inactive: 15.2%

SMILES	growth rescue (activation)
FC(F)Oc1ccccc1/C=N/Nc1nc2ccccc2o1	inactive: 10.2%
CCOc1ccc(NC(=O)c2ccccc2NC(=O)CN(C)CC(=O)Nc2ccc(C)cc2)cc1	inactive: 3.92%
O=S(=O)(NCC1CCCO1)c1ccc(S(=O)(=O)N(Cc2ccc(F)cc2)Cc2ccccn2)cc1 (stereo not given)	inactive: 10.5%
COc1cc(-c2nc(CN3CCN(CC(C)C)C(=O)[C@@H]3C)c(C)o2)ccc1F	inactive: -7.76%
O=C(CSCc1c(Cl)cccc1Cl)N1CCOCC1	inactive: 20.9%
CCCCC(=O)Nc1cccc(NC(=S)NC(C)=O)c1	inactive: -7.13%
CCc1nnc(NC(=O)CSc2nc(-c3ccccc3)cc(-c3ccc(OC)cc3)c2C#N)s1	inactive: 8.77%
COc1ccccc1N1CC(C(=O)Nc2cccc(C(=O)O)c2)CC1=O (stereo not given)	inactive: -14.1%
CC(=O)Nc1cccc(-c2csc(C(C)(O)c3cccc(F)c3)n2)c1 (stereo not given)	inactive: 9.61%
Cc1ccc(S(=O)(=O)NCCn2nc(C)nc2C)cc1	inactive: 9.4%
CCC(Oc1ccc2c(=O)c(-c3ccccc3OC)coc2c1)C(=O)OCc1ccccc1 (stereo not given)	inactive: 14.6%
COc1ccc2c(CC(=O)Nc3ncc(C)s3)coc2c1	inactive: 5.67%
O=[N+]([O-])c1cccc(/C=N/N2CCN(Cc3ccccc3)CC2)c1	inactive: 3.21%
CSc1nc2ccsc2c(=O)n1-c1cccnc1	inactive: 2.09%
CN(CC(O)COc1ccccc1F)C1CCCCC1 (stereo not given)	inactive: -4.42%
Cc1cccc(NC(=O)CSc2c3c(nc4ccccc24)CCC3)n1	inactive: 9.65%
Cc1ccc(S(=O)(=O)N2CCC(C(=O)NCCCN3CCCC3=O)CC2)cc1	inactive: 9.59%
COc1ccc(-c2nc(CN3CCCCC3c3cccnc3)c(C)o2)c(F)c1 (stereo not given)	inactive: 2.27%
Nc1nccnc1C(=O)OCC(=O)Nc1cccc(S(=O)(=O)N2CCCCC2)c1	inactive: 5.6%
CC1(C(=O)NS(=O)(=O)c2cccc(OC(F)F)c2)CCN1C(=O)COc1ccc(Cl)cc1 (stereo not given)	inactive: -5.68%
O=C(CSc1nc(O)cc(=O)[nH]1)C1CC1	inactive: -11.4%
O=C(Cn1cccc1C(=O)c1ccccc1)NCc1cccc(Cl)c1	inactive: -4.51%
COc1ccc(N(C(=O)c2snc(C(N)=O)c2N)C(C(=O)NC2CCCC2)c2cccs2)cc1OC (stereo not given)	inactive: -8.28%
CC(C)c1ccccc1NC1=CC(=O)CC(C)(C)C1	inactive: 25.9%

SMILES	growth rescue (activation)
CCn1nc([N+](=O)[O-])c(C(C#N)c2nc3ccccc3n2C)c(Cl)c1=O (stereo not given)	inactive: 7.65%
Cc1cccc(C(=O)Nc2ccc3c(c2)nc(C)n3C)c1	inactive: 4.5%
CC(CC(=O)Nc1ccccc1C(F)(F)F)c1ccccc1 (stereo not given)	inactive: -13.4%
CN(C)CCN1C(=O)C(=O)/C(=C(/O)c2ccccc2)C1c1ccccc1F (stereo not given)	inactive: -14.8%
O=C(O)c1sc2ncccc2c1OCc1ccccc1	inactive: 5.24%
Cc1noc(C(=O)Nc2ccc(C#N)cc2)c1Cl	inactive: 0.801%
CCOC(=O)c1csc(NC(C)=O)n1	inactive: 11.7%
CCC(c1nnnn1C1CCCCC1)N1CCN(C(=O)c2ccco2)CC1 (stereo not given)	inactive: 7.44%
CCc1ccc(N2CC(C(=O)Nc3ccc(S(=O)(=O)Nc4nccs4)cc3)CC2=O)cc1 (stereo not given)	inactive: 3.52%
CC(=O)c1ccc(N2CCN(c3ncccn3)CC2)c([N+](=O)[O-])c1	inactive: 19.7%
O=C1COc2ccc(S(=O)(=O)NCCc3ccc(Cl)cc3)cc2N1	inactive: 7.34%
CC(=O)c1ccc2c(c1)OCCOCCOCCO2	inactive: -0.0146%
COc1cc(OC)c(S(=O)(=O)NC(C)C)cc1S(=O)(=O)NC(C)C	inactive: -7.4%
O=C(/C=C/c1ccccc1)NCCSCc1ccc(Cl)cc1	inactive: 23.3%
O=C(CCC(=O)N1CCN(S(=O)(=O)c2ccc(Cl)cc2)CC1)NCc1ccccc1	inactive: 1.47%
O=C(NC(=S)NNC(=O)c1ccccc1O)c1cccc([N+](=O)[O-])c1	inactive: -24.4%
Cc1ccc(-c2n[nH]c3c2C(c2ccccc2)N(c2ccc(C(=O)O)cc2)C3=O)cc1 (stereo not given)	inactive: 11.6%
CCOc1ccccc1CNC(=O)c1cc2oc3ccccc3c2n1CC	inactive: 1.76%
O=c1oc2ccc(NS(=O)(=O)c3cccc4cccnc34)cc2s1	inactive: -19.3%
Cc1ccccc1N=Nc1ccc(O)c2ncccc12	inactive: -28.9%
O=C(/C=C/c1cc(Br)ccc1F)Nc1cccnc1	inactive: 2.17%
Cc1cc(C)n(C(=O)CNC(=O)c2cccc(F)c2)n1	inactive: -8.49%
